To fix the notation:
B1: LINE1-full (parent)
chain: UACGUAGGUGGUUUUCCCCUGAUAGUGCUAAGGGGGCCUGGAAGUUUGGACUGGGCAGAGCUCAACACAGCGUGGCAAAGUGGCUGUGGCUAGACUGCCUCUCUGGAUUCCUCGUCACUCAGCAGGGCAUCUCUGAGAGAAAUGCC

The source gives no read counts; variants with many changes may rest on few reads.

Variants of B1 are the subject of this data set. Nature of the data set: self-cleavage, relative activity (ratio to wild type); higher = more cleavage; in vitro, sequencing; the parent is a self-cleaving ribozyme.
In the case of UACGUAGGUGGCUUUCCCCUGAUAGUGCUAAGGGGGCCUGGAAGUUUGGACUGGGCAGAGCUCAACACAGCGUGGCAAAGUGGCUGUGGCUAGGCUGCCUCUCUGGAUUCCUCGUCACUCAGCAGGGCAUCUCCGAGAGAAAUGCC [U12C A94G U134C], the self-cleavage was 0.24.

UACGUAGGUGGCUUUCCCCUGAUAGUGCUAAGGGGGCCUGGAAGUUUGGACUGGGCAGAGCUCAACACAGCGUGGCAAAGUGGCUGUGGCUAGACUGCCUCUCUGGUUACCUCGUCGCUCAGCAGGGCAUCUCUGAGAGAAGUGCC [U12C A107U U109A A117G A142G]: the self-cleavage amounted to 2.33. Turning to UACGUAGGUGGCUUUCCCCUGAUAGUGCUAAGGGGGCCUGGAAGUUUGGACUGGGCAGAGCUCAACACAGCGUGGCAAAGUGGCUGUGGCUAGACUGCCUCUCUGGAUUCCUCGUCGCUCAGCAGGGCAUCUCCGAGAGAAAUGCC [U12C A117G U134C], the self-cleavage is 0. With UACGUAGGUGGCUUUUCCCUGAUAGUGCUAAGGGGGCCUGGAAGUUUGGACUGGGCAGAGCUCAACACAGCGUGGCAAAGUGGCCGUGGCUAGACUGCCUCUCUGGAUUCCUCGUCACUCAGCAGGGCAUCUCUGAGAGAAAUGCC [U12C C16U U85C], the self-cleavage came out at 0.21.

Regarding UACGUAGGUGGCUUUCCCCUGAUAGUGCUAAGGGGGCCUGGAAGUUUGGACUGGGCAGAGCUCAACACAGCGUGGCAAAGUGGCUGUGGCUUGACUGCCUCUCUGGAAUCCUCGUCACUCAGCAGGGCAUCUCUGAGAGGAAUGCC [U12C A92U U108A A140G], the self-cleavage was found to be 0.77.

On to UACGUAGGUGGCUUUCCCCUGAUAGUGCUAAGGGGGCCUGGAAGUUUGGACUGGGCAGAGCUCAACACAGCGUGGCCAAAUGGCUGUGGCUAGACUGCCUCUCUGGAUUCCUCGUCACUCAGCAGGGCAUCUCUGAGAGAGAUGCC [U12C A77C G80A A141G], for which the self-cleavage was 0.96. Turning to UACGUAGGUGGCUUUCCCCUGAUAGUGCUAAGGGGGCCUGGAAGUUUGGACUGGGCAGAGCUCAACACAGCGUGGCAAAGUGGCUGUGGCUAGACUGCCUCUCUGGGUUCCUCGUCACUCGGCAGGGCAUCUCUGAGAGAAAUGCC [U12C A107G A121G], the self-cleavage was determined as 1.53. Consider UACGUAGGUGGCUUUCCCCUGAUAGUGCUAAGGGGGCCUGGAAGUUUGGACUGGGCAGAGUUCAACACAGCGUGGCAAAGUGGCUGUGGCUAGACUGCCUCUCUGGAUUCCUCGUCACUCAGCAGUGCAUCUCUGAGAGAAAUGCC [U12C C61U G126U], for which the self-cleavage came out at 0.05. With UACGUAGGUGGCUUUCCCCUGAUAGUGCUAAGGGGGCCUGGAAGUUUGGACUGGGCAGAGCUCAACACAGCGUGGCAAAGUGGCUGUGGCUAGACUGCCUCUCUGGAUUCCUCGUCACUCAGCAGGGCGUCUCUGGGAGAAAUGCC [U12C A129G A136G], the self-cleavage came to 2.19. Under UACGUAGGUGGCUUUCCCUUGAUAGUGCUAAGGGGGCCUGGAAGUUUGGACUGGGCAGAGCUCAACACAGCGUGGCAAAGUGGCUGUGGCCAGACUGCCUCUCUGGAUCCCUUGUCACUCAGCAGGGCAUCUCUGAGAGAAAUGCC [U12C C19U U91C U109C C113U] stands 0.45; under UACGUAGGUGGCUUUCCCCUGAUAGUGCUAAGGGGGCCUGGAAGUUUGGACUGGGCAGAGCUCAACGCAGCGUGGCAAAGUGGCUGUGGCUAGACUGCCCCUCUGGAUCCCUCGUCACUCAGCAGGGCAUCUCUGAGAGAAAUGCC [U12C A67G U100C U109C], 0; under UACGUAGGUGGCUUUCCCCUGAUAGUGCUAAGGGGGCCUGGAAGUUUGGACUGGGCAGAGCUCAACACAGCGUGGCAAAGUGGCUGUGGCUAGACUGCCUCUCUGGAUUCCUCGUCACUCAGCAGGGCAUCUCUGAGAGAGAAGCC [U12C A141G U143A], 1.51. For UACGUAGGUGGCUUUCCCCUGAUAGUGCUAAGGGGGCCUGGAAGUUUGGACUGGGCAGAGCUCAACACGGCGUGGCAAAGUGGCUGUGGCUAGACUGCCUCUCUGGAUUCCUCGUCACUCAGCAGGGCAUCUCUGAGAGGAAUGCC [U12C A69G A140G], the self-cleavage stood at 0.81.

With UACGUAGGUGGCUUUCCCCUGAUAGUGCUAAGGGGGCCUGGAAGUUUGGACUGGGCAGAGCUCAACGCAGCGUGGCAAAGUGGCUGUGGCUAGACUGCCUCUCUGGAUUCCUCGUCACUCAGCAGGGCACCUCUGAGAGAAAUGCC [U12C A67G U130C], the self-cleavage came to 0. Under UACGUAGGUGGCUUUCCCCUGAUAGUGCUAAGGGGGCCUGGAAGUUUGGACUGGGCAGAGCUCAACUCAGCGUGGCAAAGUGGCUGUGGCUAGACUGCCUCUCUGGAUCCCUCGUCACUCAGCAGGGCAUCUCUGAGAGAAAUGCC [U12C A67U U109C] stands 0. Take UACGUAGGUGGCUUUUCCCUGAUAGUGCUAAGGCGGCCUGGAAGUUUGGACUGGGCAGAGCUCAACACAGCGUGGCAAAGAGGCUGUGGCUAGACUGCCUCUCUGGAUUCCUCGUCACUCGGCAGGGCAUCUCUGAGAGAAAUGCU [U12C C16U G34C U81A A121G C146U]: the self-cleavage came out at 2.04. Consider UACGUAGGUGGCUUUCCCCUAAUAGUGCUAAGGGGGGCUGGAAGUUUGGACUGGGCAGAGCUCAACACAGCGUGGCAAAGUGGCUGUGGCUAGACUGCCUCCCUGGAUUCCUCGUCACUCAGCAGGGCAUCUCUGAGAGAAAUGCC [U12C G21A C37G U102C], for which the self-cleavage turned out to be 0.58. Regarding UACGUAGGUGGCUUUCCCCUGAUAGUGCUAAGGGGGCCUGGAAGUUUGGACUGGGCAGAGCUCAACACAGCGUGGCAAGGUGGCUGUGGCUAGACUGCCUCUCUGGAUUCCUCGUCACUCAGCAGGUCAUCUCUGAGAGAAACGCC [U12C A79G G127U U143C], the self-cleavage stood at 1.16. Under UACGUAGGUGGCUUUCCCCUGAUAGUGCUAAGGGGGCCUGGAAGUUUGGACUGGGCAGAGCUCAACACAGCGUGGCAGAGUAGCUGUGGCUAGACUGCCUCUCUGGAUUCCUCGUCACUCAGCAGGGCAUCUCUGAGAGAAAUGCC [U12C A78G G82A] stands 1.32. On to UACGUAGGUGGCUUUCCCAUGAUAGUGCUAAGGGGGCCUGGAAGUUUGGACUGGGCAGAGCUCAACACAGCGUGGCAAAGUGGCUGUGGCUAGGCUGCCUCUCUGGAUUCCUCGUCACUCAGCAGGGCAUCUCUGAGAGAAAUGCC [U12C C19A A94G], for which the self-cleavage is 0.06.

Values taken from the RNAGym collection of RNA variant scans (doi:10.7554/elife.90254).
